Results taken from the supplement of paper PMC8728848.
This is one part of the list.

How the values were obtained:
Assay in all cases: glycan array binding signal (z-score within array); higher = stronger binding
Conditions in all cases: glycan notation: IUPAC condensed, linker removed
Kdn(a2-3)Gal(b1-4)Glc = target: Kdn(a2-3)Gal(b1-4)Glc
Summary of the method: (§1)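 Glycan array data came from 3228 arrays in the Consortium for Functional Glycomics database, and only arrays with an available protein sequence were kept. Glycan names were put into IUPAC-condensed notation, and columns mapping to the same glycan were averaged. The binding signal is a within-array Z-score, averaged across arrays of one protein sequence run at different concentrations or buffers and across linkers. A negative Z-score can be read as non-binding.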

Kdn(a2-3)Gal(b1-4)GlcNAc = target: Kdn(a2-3)Gal(b1-4)GlcNAc
Summary of the method: as §1

[1] = target: Kdn(a2-3)Gal(b1-4)[Fuc(a1-3)]GlcNAc
Summary of the method: as §1

Kdn(a2-6)Gal(b1-4)GlcNAc = target: Kdn(a2-6)Gal(b1-4)GlcNAc
Summary of the method: as §1

[2] = target: Man(a1-2)Man(a1-2)Man(a1-3)Man
Summary of the method: as §1

[3] = target: Man(a1-2)Man(a1-2)Man(a1-6)[Man(a1-3)]Man
Summary of the method: as §1

Man(a1-2)Man(a1-3)Man = target: Man(a1-2)Man(a1-3)Man
Summary of the method: as §1

[4] = target: Man(a1-2)Man(a1-3)[Man(a1-2)Man(a1-6)]Man
Summary of the method: as §1

[5] = target: Man(a1-2)Man(a1-3)[Man(a1-2)Man(a1-6)]Man(a1-6)[Man(a1-2)Man(a1-2)Man(a1-3)]Man
Summary of the method: as §1

[6] = target: Man(a1-2)Man(a1-3)[Man(a1-2)Man(a1-6)]Man(a1-6)[Man(a1-2)Man(a1-2)Man(a1-3)]Man(b1-4)GlcNAc(b1-4)GlcNAc
Summary of the method: as §1

[7] = target: Man(a1-2)Man(a1-3)[Man(a1-6)]Man(a1-6)[Man(a1-2)Man(a1-3)]Man(b1-4)GlcNAc(b1-4)GlcNAc
Summary of the method: as §1

[8] = target: Man(a1-2)Man(a1-6)[Man(a1-3)]Man(a1-6)[Man(a1-2)Man(a1-2)Man(a1-3)]Man
Summary of the method: as §1

[9] = target: Man(a1-2)Man(a1-6)[Man(a1-3)]Man(a1-6)[Man(a1-2)Man(a1-2)Man(a1-3)]Man(b1-4)GlcNAc(b1-4)GlcNAc
Summary of the method: as §1

Man(a1-3)[Man(a1-6)]Man = target: Man(a1-3)[Man(a1-6)]Man
Summary of the method: as §1

[10] = target: Man(a1-3)[Man(a1-6)]Man(a1-6)[Man(a1-2)Man(a1-3)]Man(b1-4)GlcNAc(b1-4)GlcNAc
Summary of the method: as §1

[11] = target: Man(a1-3)[Man(a1-6)]Man(a1-6)[Man(a1-3)]Man
Summary of the method: as §1

[12] = target: Man(a1-3)[Man(a1-6)]Man(a1-6)[Man(a1-3)]Man(b1-4)GlcNAc(b1-4)GlcNAc
Summary of the method: as §1

[13] = target: Man(a1-3)[Man(a1-6)]Man(b1-4)GlcNAc(b1-4)GlcNAc
Summary of the method: as §1

[14] = target: Man(a1-3)[Man(a1-6)]Man(b1-4)GlcNAc(b1-4)[Fuc(a1-6)]GlcNAc
Summary of the method: as §1

Man(a1-6)Man = target: Man(a1-6)Man
Summary of the method: as §1

Man(b1-4)GlcNAc = target: Man(b1-4)GlcNAc
Summary of the method: as §1

MurNAc(b1-4)GlcNAc = target: MurNAc(b1-4)GlcNAc
Summary of the method: as §1

Neu5Ac(a2-3)Gal = target: Neu5Ac(a2-3)Gal
Summary of the method: as §1

[15] = target: Neu5Ac(a2-3)Gal(b1-3)GalNAc
Summary of the method: as §1

[16] = target: Neu5Ac(a2-3)Gal(b1-3)GalNAc(b1-3)Gal(a1-4)Gal(b1-4)Glc
Summary of the method: as §1

[17] = target: Neu5Ac(a2-3)Gal(b1-3)GalNAc(b1-4)[Neu5Ac(a2-3)]Gal(b1-4)Glc
Summary of the method: as §1

[18] = target: Neu5Ac(a2-3)Gal(b1-3)GalNAc(b1-4)[Neu5Ac(a2-8)Neu5Ac(a2-3)]Gal(b1-4)Glc
Summary of the method: as §1

[19] = target: Neu5Ac(a2-3)Gal(b1-3)GalNAc6S
Summary of the method: as §1

[20] = target: Neu5Ac(a2-3)Gal(b1-3)GlcNAc
Summary of the method: as §1

[21] = target: Neu5Ac(a2-3)Gal(b1-3)GlcNAc(b1-2)Man
Summary of the method: as §1

[22] = target: Neu5Ac(a2-3)Gal(b1-3)GlcNAc(b1-2)Man(a1-3)[GlcNAc(b1-4)][Neu5Ac(a2-3)Gal(b1-3)GlcNAc(b1-2)Man(a1-6)]Man(b1-4)GlcNAc(b1-4)GlcNAc
Summary of the method: as §1

[23] = target: Neu5Ac(a2-3)Gal(b1-3)GlcNAc(b1-2)Man(a1-3)[Neu5Ac(a2-3)Gal(b1-3)GlcNAc(b1-2)Man(a1-6)]Man(b1-4)GlcNAc(b1-4)GlcNAc
Summary of the method: as §1

[24] = target: Neu5Ac(a2-3)Gal(b1-3)GlcNAc(b1-3)Gal(b1-3)GlcNAc
Summary of the method: as §1

[25] = target: Neu5Ac(a2-3)Gal(b1-3)GlcNAc(b1-3)Gal(b1-4)GlcNAc
Summary of the method: as §1

[26] = target: Neu5Ac(a2-3)Gal(b1-3)GlcNAc(b1-3)GalNAc
Summary of the method: as §1

[27] = target: Neu5Ac(a2-3)Gal(b1-3)GlcNAc(b1-4)Gal(b1-4)Glc
Summary of the method: as §1

[28] = target: Neu5Ac(a2-3)Gal(b1-3)GlcNAc(b1-6)GalNAc
Summary of the method: as §1

[29] = target: Neu5Ac(a2-3)Gal(b1-3)GlcNAc6S
Summary of the method: as §1

B1: PX15618B-bfa-464-25-464 (Bacteroides fragilis) (protein)
chain: DQEPPLYVNENDIFTSPTRIEATLNGLYAAIKNTGTKSLMGGKSYLVFDNRGDDVINISNNLVTLFNTYNMNVGITDAENADTWTYAYLAINKVNTFLQSLEGAREVAGENYDRYVQEAKFVRALAYYYLNNLYPTPYSVNPDAKSVPLRLTAEAGTENNNMPRSTVKQIYEHILSDLENISALDTEVNTYTGVTHATQAAANMLKMRVYMAMNEWDKAITAGELVTGYSLPEDVTLIYKAPYFSQESIFSLPMADTNIPNTQQSLAEYYYDGKIMLIDTKSGIMSKPDYSLATDKRIIAFKGEKDLLMKFTDAKTKLQWVPIFRYAETLLDLAECYANKAGGEATAKSLLKQVRGRSVDAATDPLNIDNLSGDALKEAIYNEKRLEFIGEGIRGIDIMRRGEHFIKVGENETINVGPSDEKYTWPIPQVELLLNKDINK
**Q.** How did the “glycan array binding signal (z-score)” value (Kdn(a2-3)Gal(b1-4)Glc) turn out when B1 was run?
**A.** Its value is -0.123.

**Q.** What about the “glycan array binding signal (z-score)” value (Kdn(a2-3)Gal(b1-4)GlcNAc) of the same binder?
**A.** The value was -0.28.

**Q.** And the “glycan array binding signal (z-score)” value [1]?
**A.** Its value is 0.413.

**Q.** What about the “glycan array binding signal (z-score)” value (Kdn(a2-6)Gal(b1-4)GlcNAc) of the same binder?
**A.** Its value is 0.29.

**Q.** What about the “glycan array binding signal (z-score)” value [2] of the same binder?
**A.** Its value is -0.568.

**Q.** What about the “glycan array binding signal (z-score)” value [3] of the same binder?
**A.** Its value is 0.334.

**Q.** What about the “glycan array binding signal (z-score)” value (Man(a1-2)Man(a1-3)Man) of the same binder?
**A.** Its value is -0.045.

**Q.** What about the “glycan array binding signal (z-score)” value [4] of the same binder?
**A.** The value was -0.279.

**Q.** And the “glycan array binding signal (z-score)” value [5]?
**A.** Its value is 0.265.

**Q.** And the “glycan array binding signal (z-score)” value [6]?
**A.** Its value is -0.218.

**Q.** And the “glycan array binding signal (z-score)” value [7]?
**A.** Its value is -0.391.

**Q.** And the “glycan array binding signal (z-score)” value [8]?
**A.** Its value is -0.122.

**Q.** And the “glycan array binding signal (z-score)” value [9]?
**A.** Its value is -0.199.

**Q.** And the “glycan array binding signal (z-score)” value (Man(a1-3)[Man(a1-6)]Man)?
**A.** The value was -0.007.

**Q.** And the “glycan array binding signal (z-score)” value [10]?
**A.** Its value is -0.269.

**Q.** What about the “glycan array binding signal (z-score)” value [11] of the same binder?
**A.** The value was -0.143.

**Q.** And the “glycan array binding signal (z-score)” value [12]?
**A.** Its value is 0.119.

**Q.** What about the “glycan array binding signal (z-score)” value [13] of the same binder?
**A.** The value was -0.306.

**Q.** What about the “glycan array binding signal (z-score)” value [14] of the same binder?
**A.** Its value is 0.037.

**Q.** What about the “glycan array binding signal (z-score)” value (Man(a1-6)Man) of the same binder?
**A.** Its value is 0.302.

**Q.** And the “glycan array binding signal (z-score)” value (Man(b1-4)GlcNAc)?
**A.** The value was 0.054.

**Q.** What about the “glycan array binding signal (z-score)” value (MurNAc(b1-4)GlcNAc) of the same binder?
**A.** Its value is -0.254.

**Q.** And the “glycan array binding signal (z-score)” value (Neu5Ac(a2-3)Gal)?
**A.** Its value is -0.377.

**Q.** What about the “glycan array binding signal (z-score)” value [15] of the same binder?
**A.** The value was -0.426.

**Q.** What about the “glycan array binding signal (z-score)” value [16] of the same binder?
**A.** Its value is 0.658.

**Q.** What about the “glycan array binding signal (z-score)” value [17] of the same binder?
**A.** Its value is -0.309.

**Q.** And the “glycan array binding signal (z-score)” value [18]?
**A.** The value was -0.526.

**Q.** And the “glycan array binding signal (z-score)” value [19]?
**A.** Its value is 0.024.

**Q.** What about the “glycan array binding signal (z-score)” value [20] of the same binder?
**A.** Its value is -0.219.

**Q.** What about the “glycan array binding signal (z-score)” value [21] of the same binder?
**A.** The value was -0.66.

**Q.** What about the “glycan array binding signal (z-score)” value [22] of the same binder?
**A.** Its value is 0.609.

**Q.** And the “glycan array binding signal (z-score)” value [23]?
**A.** Its value is -0.136.

**Q.** And the “glycan array binding signal (z-score)” value [24]?
**A.** Its value is -0.299.

**Q.** What about the “glycan array binding signal (z-score)” value [25] of the same binder?
**A.** Its value is -0.249.

**Q.** And the “glycan array binding signal (z-score)” value [26]?
**A.** Its value is -0.384.

**Q.** And the “glycan array binding signal (z-score)” value [27]?
**A.** The value was -0.752.

**Q.** What about the “glycan array binding signal (z-score)” value [28] of the same binder?
**A.** The value was -0.298.

**Q.** What about the “glycan array binding signal (z-score)” value [29] of the same binder?
**A.** The value was -0.374.
